Reference: PubChem BioAssay AID651820 (National Center for Advancing Translational Sciences (NCATS), 2012)
Several values for one entry are separate records, joined by “and”; a condition that tells them apart may be missing. Equal entries are not always repeated. Hit rate of the full screen: of about 340,000 compounds, about 12,000 (3.5%) were called active. The inconclusive results got no clear call from the source; some entries with a clear call stand among them for comparison. Calls come from the whole dose curve; as a rule, active = well fitted inhibition curve with a large enough effect; inconclusive = small, poorly fitted or top-dose-only effect, or another doubt; inactive = no such curve, though single readings can be large or run the other way. Potencies beside an inconclusive call are fits to weak or partial responses and may not hold up.

assay: qHTS Assay for Inhibitors of Hepatitis C Virus (HCV); details: Huh7.5.1 HCVcc-Cre (HCVcc is cell-culture hepatitis C virus) infection, luciferase reporter, 44 h; activity change, negative = inhibition: at 41.8 µM (top of the series) unless noted
How it was run: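 Cells seeded at 1,000/well and cultured 4 h, then compounds added followed by HCVcc-Cre virus (~0.5 moi). After 44 h further culture, luciferase substrate was added, plates held 15 min at room temperature, and luminescence read for 15 sec.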
% is set by controls: 0 for no effect and ±100 for the full control effect; potency is the fitted concentration of half-maximal effect; tags give direction and shape of the fitted curve.

Compound	Potency	activity change, negative = inhibition
S=C(NCC1CCCCC1)Nc1ccc(Oc2ccccc2)cc1	inconclusive: 11.2 µM [inhibitor, partial curve]	
CCc1nc2n(n1)C(O)c1cc([N+](=O)[O-])ccc1S2 (centres undefined)	inconclusive: 31.6 µM [inhibitor, single point]	
O=C1/C(=C/Nc2ccc3c(c2)OCO3)CCc2ccccc21	inconclusive: 10 µM [inhibitor, partial curve]	
COc1ccc(CN(C)C(=O)c2cccc(Oc3ccccc3)c2)c(OC)c1OC	inconclusive: 22.4 µM [inhibitor, single point]	
COc1ccc(-c2csc3ncnc(N4CCN(S(=O)(=O)c5ccccc5C#N)CC4)c23)cc1	inconclusive: 8.91 µM [inhibitor, partial curve, poor fit]	
O=C(CSc1ccc2ccccc2c1)Nc1ccncc1	inconclusive: 31.6 µM [inhibitor, single point]	
c1ccc(C[n+]2ccccc2)cc1	inconclusive: 3.98 µM [inhibitor, partial curve]	
CCc1c(C2(O)CCCCC2)[nH]c2ncccc12	inconclusive: 22.4 µM [inhibitor, single point]	
O=C(CSc1ccc(Cl)cc1)Nc1cccc(-c2nc3ccccc3[nH]2)c1	inconclusive: 31.6 µM [inhibitor, single point]	
CC(NC(=O)Cc1ccc(NS(=O)(=O)c2cccc(C(F)(F)F)c2)cc1)c1ccccn1 (centres undefined)	inconclusive: 31.6 µM [inhibitor, single point]	
COc1ccc(/C=N/N2CCN(C)CC2)cc1O	inconclusive: 3.16 µM [inhibitor, single point]	
COc1ccccc1N(CC(=O)NCCSCc1ccc(Cl)cc1)S(C)(=O)=O	inconclusive: 12.6 µM [inhibitor, single point]	
Cc1ncc(CO)c2c1Oc1nc(-c3ccccc3)nc(SCC(=O)Nc3cccc(O)c3)c1C2	inconclusive: 22.4 µM [inhibitor, single point]	
N#Cc1ccccc1NC(=O)CSc1nnc(-c2ccccc2)n1-c1ccccc1		inactive: 1.5%
CC(=O)Nc1ccc(Nc2cc(C)nc3ccccc23)cc1		inactive: 8.53%
COc1ccc(-c2cc(C(=O)N3CC4(C)CC3CC(C)(C)C4)no2)cc1OC (centres undefined)		inactive: 7.67%
CCc1c(C)c(C#N)c2nc3ccccc3n2c1NCCN(C)C	inconclusive: 15.8 µM [inhibitor, partial curve]	
Cc1cc(/C=C2\SC(=O)N(C)C2=O)c(C)n1-c1ccc(S(N)(=O)=O)cc1		inactive: -19.6%
Cc1c(C(N)=O)sc2nc(-c3ccccc3)cn12	inconclusive: 11.2 µM [inhibitor, single point]	
O=C(c1ccc(S(=O)(=O)N2CCCCCC2)cc1)N(c1ccccn1)C1CCCCC1	inconclusive: 31.6 µM [inhibitor, single point]	
COc1ccccc1/C(C)=N/NC(=S)NCc1ccccc1	inconclusive: 31.6 µM [inhibitor, partial curve, poor fit]	
Cc1cc(-c2ccccc2)n2ncc(-c3ccccc3)c2n1	inconclusive: 11.2 µM [inhibitor, partial curve]	
Cc1nn(-c2ccccc2)c(C)c1C(=O)OCc1ccc(C#N)cc1	active: 12.6 µM	

Compound	Potency	activity change, negative = inhibition
O=C(COc1ccc2c3c(c(=O)oc2c1)CCCC3)N1CCN(c2ccccc2)CC1	inconclusive: 3.16 µM [inhibitor, partial curve]	
COc1ccc(OC)c(/C=C/C(=O)c2ccc3c(c2)OCCO3)c1	inconclusive: 10 µM [inhibitor, partial curve]	
CSCC[C@@H](C(=O)NCCCCCCCCCCC(=O)N1CCN(C(=O)OC(C)(C)C)CC1)n1cc(CCO)nn1	inconclusive: 22.4 µM [inhibitor, single point]	
CC1CN(CC(O)COc2ccc(C(C)C)cc2)CC(C)O1 (centres undefined)	inconclusive: 35.5 µM [inhibitor, partial curve]	
S=C(NCCc1ccccc1)N1CCN(Cc2ccccc2)CC1	inconclusive: 3.98 µM [inhibitor, single point]	
N#CCCn1cc(/C=C/C(=O)O)c(-c2ccc(F)cc2)n1		inactive: 10.4%
COCCN(CCOC)C(=O)CCn1c(=O)oc2ccccc21	inconclusive: 5.62 µM [inhibitor, single point]	
CN(C)S(=O)(=O)c1cccc(NC(=O)CCc2c[nH]c3ccccc23)c1	inconclusive: 31.6 µM [inhibitor, single point]	
COc1cc(NC(=O)CCCc2c[nH]c3ccccc23)cc(OC)c1	inconclusive: 25.1 µM [inhibitor, partial curve]	
O=C(NCc1ccccc1)c1cccc(NC(=O)c2ccccc2)c1	inconclusive: 3.98 µM [inhibitor, single point]	
Cc1nn(-c2ccccc2)c(C)c1CN(C)C(=O)c1ccc(S(=O)(=O)NCc2ccco2)cc1	active: 14.1 µM	
O=C(COc1ccc2cc(Br)ccc2c1)N1CCCC1		inactive: -16.4%
COc1ccc2c(c1OC)C(=O)OC2Nc1nc(-c2cc3ccccc3oc2=O)cs1 (centres undefined)	inconclusive: 15.8 µM [inhibitor, single point]	
S=C(NCCN(C1CCCCC1)C1CCCC1)Nc1cccc(Cl)c1	active: 12.6 µM	
Cc1ccc2[nH]c3c(=O)n(CC(=O)N4CC(C)CC(C)C4)ncc3c2c1 (centres undefined)		inactive: 20.5%
C=CCNc1cnn(-c2ccc(C)cc2)c(=O)c1Sc1ccc(C)cc1	inconclusive: 31.6 µM [inhibitor, single point]	
CN1C(=O)/C(=C/c2cccc(Cl)c2)Sc2ccc(C(=O)NCc3cccnc3)cc21	active: 10 µM	
O=C(Nc1ccccc1)c1ccc2c(c1)CCN2S(=O)(=O)c1ccccc1	inconclusive: 11.2 µM [inhibitor, single point]	
Cc1ccc(-c2noc(C3CCN(S(=O)(=O)c4ccc5c(c4)OCCO5)CC3)n2)o1	active: 12.6 µM	
COc1ccc(NC2CCCN(C(=O)C3(C)CCCCC3)C2)cc1OC (centres undefined)		inactive: -4.65%
CCOC(=O)c1[nH]c2ccc(OC)cc2c1NC(=O)c1ccc2c(c1)OCO2	inconclusive: 7.94 µM [inhibitor, partial curve]	
Cc1noc(C)c1S(=O)(=O)N1CCC(C(=O)N2CCN(c3ccccc3Cl)CC2)CC1	inactive	
CCOC(=O)C(C)Oc1ccc2c(-c3cccc([N+](=O)[O-])c3)cc(=O)oc2c1 (centres undefined)	inconclusive: 5.62 µM [inhibitor, partial curve]	

Compound	Potency	activity change, negative = inhibition
O=C(CC(c1ccccc1)c1ccccc1)Nc1ccc(O)cc1		inactive: -3.19%
CCC(=O)Oc1ccc(C2N(C(=O)CC)CCN2S(=O)(=O)c2ccc(C)cc2)cc1OC (centres undefined)		inactive: 17.8%
CCc1ccc(CNC(=O)c2nn(C)c3c2CS(=O)(=O)c2ccccc2-3)cc1	inconclusive: 8.91 µM [inhibitor, partial curve]	
COc1ccc(N2CCN(c3nc4c(c(=O)n(C)c(=O)n4C)n3Cc3ccccc3)CC2)cc1	active: 11.2 µM	
O=C(CCCN1C(=O)CCC1=O)Nc1ccc2c(c1)OCCO2		inactive: 3.29%
Cn1cnc([N+](=O)[O-])c1S(=O)(=O)c1cccc(Cl)c1	inconclusive: 20 µM [inhibitor, single point]	
Cc1nnc2ccc(Oc3ccc(-c4ccccc4)cc3)nn12	inconclusive: 31.6 µM [inhibitor, single point]	
Cc1cc(C(=O)OC(C(=O)Nc2cccc(C(F)(F)F)c2)c2ccccc2)c(C)o1 (centres undefined)	inconclusive: 5.01 µM [inhibitor, partial curve]	
O=c1c2cnn(-c3ccccc3)c2nc(-c2ccco2)n1-c1ccccc1	active: 12.6 µM	
COC(=O)C1=C(c2cccc(Cl)c2)C[C@@H]2CC[C@H]1N2C(=O)N1CCCC1	inconclusive: 31.6 µM [inhibitor, single point]	
Cc1ccc(-c2c(C#N)c(N)nc3c2CCCC3)o1	inconclusive: 31.6 µM [inhibitor, single point]	
O=C(/C=C/CCc1ccc2c(c1)OCO2)N1CCCCC1		inactive: -13.3%
Cc1cc(/C=C(\C#N)C(=O)Nc2ccccc2F)c(C)[nH]1	inconclusive: 5.01 µM [inhibitor, partial curve]	
NC(=O)C1CCN(C(=O)Cc2ccc([N+](=O)[O-])cc2)CC1		inactive: 12.7%
O=C(CN1c2cccc3cccc(c23)S1(=O)=O)Nc1ccc(F)c(F)c1F	inconclusive: 11.2 µM [inhibitor, single point]	
CSCCC(=O)NC1CCCN(CCc2ccccc2)C1 (centres undefined)		inactive: 15.1%
COc1ccc(-c2cnc(N)nc2-c2ccc(OC)cc2O)cc1	inconclusive: 11.2 µM [inhibitor, partial curve]	
COc1ccc(CCNC(=O)C2CC3Cn4c(nc5ccccc54)C3N2C)cc1 (centres undefined)	inconclusive: 4.47 µM [inhibitor, single point]	
Cc1ccc(S(=O)(=O)c2nc(-c3ccccc3)oc2N2CCC(C(N)=O)CC2)cc1		inactive: 19.2%
O=C(CCN1CCc2ccccc2CC1)c1ccc2c(c1)OCCO2	inconclusive: 31.6 µM [inhibitor, single point]	
COc1ccc(OC)c(S(=O)(=O)Oc2ccc(N)c3ccccc23)c1	inconclusive: 10 µM [inhibitor, partial curve]	
CC(C)OCCCN1C(=O)c2[nH]nc(-c3ccccc3O)c2C1c1cccc(Cl)c1 (centres undefined)	inconclusive: 10 µM [inhibitor, partial curve] and inconclusive: 14.1 µM [inhibitor, single point]	
Oc1ccc(N2CCN(c3ccnc4cc(Cl)ccc34)CC2)cc1		inactive: -24.9%
